The subject of one experiment is HSkMC. The experiment can be described thus: cytotoxicity call (relative viability < 0.9). The note with it: 10 µM.
Another experiment relates to HepG2. The experiment can be described thus: cytotoxicity call (relative viability < 0.9). The note with it: 10 µM.
In a further experiment the test system is S. aureus RN4220. Put plainly: growth inhibition call (relative growth <= 0.2). The settings on record: 50 µM.

This is one part of the list.

On to `C[C@@H]1CN([C@H](C)CO)C(=O)c2cc(NC(=O)Nc3cccc4ccccc34)ccc2O[C@@H]1CN(C)Cc1ccc(Oc2ccccc2)cc1`, for which the cytotoxicity call in the experiment on HSkMC was “inactive”. Moreover, the cytotoxicity call with HepG2 was “active”. Further, in the experiment on S. aureus RN4220, the growth inhibition call is “inactive”.

For the molecule `COc1ccc(S(=O)(=O)N(C)C[C@H]2OCCCC[C@@H](C)Oc3ccc(NC(=O)Nc4ccc(F)cc4)cc3C(=O)N([C@@H](C)CO)C[C@@H]2C)cc1`, the cytotoxicity call in the experiment with HSkMC and with HepG2 was “inactive” each time. Further, the growth inhibition call with S. aureus RN4220 was “inactive”.

Consider `C[C@@H]1CN([C@@H](C)CO)C(=O)CCCn2cc(nn2)CO[C@H]1CN(C)C(=O)Nc1ccnc(N2CCOCC2)c1`, for which the cytotoxicity call with HSkMC and in the experiment on HepG2 was “inactive” each time. For the same molecule, the growth inhibition call in the experiment with S. aureus RN4220 is “inactive”.

Turning to `C[C@H](CO)N1C[C@H](C)[C@H](CN(C)Cc2ccc(F)cc2)Oc2cc(C#CCN(C)C)ccc2S1(=O)=O`, the cytotoxicity call in the experiment on HSkMC (human skeletal muscle cells) was “inactive”. Besides, the cytotoxicity call in the experiment with HepG2 is “active”. For the same molecule, in the experiment on S. aureus RN4220, the growth inhibition call was “inactive”.

For `Cc1cccnc1[C@@H](NC(=O)C1CCN(CCOc2ccc(Cl)cc2Cl)CC1)c1ccc(F)cc1`, the cytotoxicity call in the experiment with HSkMC and in the experiment with HepG2 was “inactive” each time. Also, the growth inhibition call with S. aureus RN4220 is “active”.

Turning to `C[C@@H]1CN([C@H](C)CO)C(=O)c2cccc(NC(=O)c3ccc(-c4nccs4)cc3)c2O[C@H]1CN(C)Cc1ccccc1`, the cytotoxicity call with HSkMC and in the experiment with HepG2 was “inactive” throughout. Besides, the growth inhibition call with S. aureus RN4220 was “inactive”.

For the molecule `CCCNC(=O)N1C[C@H](O)COC[C@@H]2O[C@@H](CC(=O)NCCCN3CCOCC3)CC[C@H]21`, the cytotoxicity call in the experiment with HSkMC and in the experiment on HepG2 was “inactive” each time. Besides, the growth inhibition call in the experiment with S. aureus RN4220 was “inactive”.

Take `O=C(C[C@@H]1CC=CCC[C@@H](Cc2ccc(F)cc2)C(=O)OCCNC1=O)N[C@@H](CO)Cc1ccccc1`: the cytotoxicity call in the experiment with HSkMC and in the experiment on HepG2 was “inactive” throughout. The growth inhibition call in the experiment with S. aureus RN4220 is “inactive”.

As to `C[C@H]1CCCCO[C@H](CN(C)C(=O)NC2CCCCC2)[C@@H](C)CN([C@@H](C)CO)C(=O)c2cc(NC(=O)Nc3ccc(F)cc3)ccc2O1`, the cytotoxicity call in the experiment with HSkMC and with HepG2 was “inactive” in each case. Further, the growth inhibition call with S. aureus RN4220 was “inactive”.

The record behind these values is the antibiotic and cytotoxicity screens of Wong et al. (2023).
